Measurements from PubChem BioAssay AID1346428 (National Center for Advancing Translational Sciences (NCATS), 2018).
The whole screen tested about 48,000 compounds, of which about 1,200 (2.5%) were called active. Another 2% or so got no clear call; they are omitted.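 The calls were made as follows: active = activation of at least 60% and not above a set upper limit (about 1 call in 100 departs from these limits); inconclusive = activation of 40% to 60%, or above that upper limit; inactive = activation under 40%.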 The list shows a part of the results.

The compounds below were run against Probable G-protein coupled receptor 32 (Homo sapiens) (UniProt O75388) (assay: qHTS for Agonists of Human Resolvin D1 Receptor DRV1). Settings: CHO-K1 GPR32 beta-arrestin PathHunter luminescence, 90 min; at 76.9 µM; active compounds read high; zero percent set by DMSO-only wells.
Method in brief: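 CHO-K1 cells stably expressing ProLink-tagged GPR32 and Enzyme Activator-tagged beta-arrestin were seeded at 2,500 cells/well overnight, exposed to compounds for 90 min at 37 °C, then read by beta-Gal complementation chemiluminescence after 1 h detection reagent.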
Also: 0% is about no effect.

UniProt O75388, sequence (O75388 whole entry, looked up): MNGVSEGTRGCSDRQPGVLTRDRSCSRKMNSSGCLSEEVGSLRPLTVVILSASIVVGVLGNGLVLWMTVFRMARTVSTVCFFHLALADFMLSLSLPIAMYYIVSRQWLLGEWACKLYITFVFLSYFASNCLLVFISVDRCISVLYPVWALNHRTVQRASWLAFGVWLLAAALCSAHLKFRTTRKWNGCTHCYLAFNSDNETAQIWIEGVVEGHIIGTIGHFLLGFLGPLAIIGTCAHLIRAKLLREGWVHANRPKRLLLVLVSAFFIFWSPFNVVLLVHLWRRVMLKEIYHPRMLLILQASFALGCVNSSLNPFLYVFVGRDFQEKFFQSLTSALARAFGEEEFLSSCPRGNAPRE

activation, inactive:
COC(=O)c1ccccc1NC(=O)CSc1nnc2cc(C)c3cc(C)cc(C)c3n12 -19.9%
Cc1ccc(NC(=O)CCCn2nc(C)c3sc4ccccc4c3c2=O)c(Cl)c1 -8.04%
Cc1ccc(-c2nnc(Nc3cccc(Br)c3)c3ccccc23)cc1S(=O)(=O)NCC1CCCO1 (stereo not drawn) -10.3%
CCN1c2ccccc2-c2nc(SCC(=O)Nc3cc(F)ccc3F)ncc2S1(=O)=O -0.803%
O=C(Cn1ccc2cc(S(=O)(=O)N3CCCC3)ccc21)NCc1ccccc1Cl 4.83%
N=S(=O)(O)Cc1noc2ccccc12 -4.28%
CCOc1ccc(C2C(=O)N(C3CCCCCC3)CC(=O)N2CCc2ccc(Cl)cc2)cc1OC (stereo not drawn) -35.1%
Cc1cc(C)c(NC(=O)Nc2csc3c2CCCC3)c(C)c1 -13.7%
COc1ccc(CCn2c(=O)c3cccnc3n(CC(=O)Nc3c(C)cc(C)cc3C)c2=O)cc1OC 0.862%
CCCc1cc(N2CCN(c3ccc(OC)cc3)CC2)n2cnnc2n1 17.8%
COc1cc(NC(=O)CCNC(=O)Cn2cnc3ccccc3c2=O)cc(OC)c1OC -9.67%
O=C(CCCCCn1c(=O)[nH]c2ccccc2c1=O)NCc1ccc(Cl)cc1 -0.505%
CCC(=O)N1CCc2cc(Br)cc(S(=O)(=O)NCc3ccccc3)c21 1.65%
CSc1ccc(CCNC(=O)C2CCN(c3ncnc4c3nc3n4CCCCC3)CC2)cc1 -9.63%
O=C(O)c1cc(=O)c2c(OCC(O)COc3cccc4oc(C(=O)O)cc(=O)c34)cccc2o1 -39.2%
Fc1ccc(-n2ncc3c(N4CCN(c5ccccc5F)CC4)ncnc32)cc1 12.1%
CCN(CC)C(=O)COc1ccc(-c2nnc(Nc3ccc(OC)c(C(=O)NC)c3)c3ccccc23)cc1 15.9%
Cc1sc2ncn(CC(=O)N(C)c3cccc(C(F)(F)F)c3)c(=O)c2c1S(=O)(=O)N1CCN(c2ncccn2)CC1 -11.9%
Cc1cc(=O)oc2c3c(ccc12)OCN(Cc1ccc(Cl)cc1)C3 10.5%
CCn1nc(C)c2c(-c3ccccc3)cc(=O)n(C(C)C(=O)NCCc3ccccc3)c21 (stereo not drawn) -17.1%
CCc1nn2c(=O)cc(COC(=O)c3ccccc3NC(=O)c3cccs3)nc2s1 -15.7%
O=C(CCn1ccc2cc(S(=O)(=O)N3CCCC3)ccc21)NCc1ccccc1Cl -5.16%
O=C(NCCc1ccc(Cl)cc1)c1ccc2c(c1)N(Cc1cccc(Cl)c1)C(=O)c1ccccc1S2(=O)=O -20.9%
Fc1ccccc1Nc1ncnc2c1nc1n2CCCCC1 13.7%
Cc1cccc(CCNC(=O)c2c[nH]c3ccc(S(=O)(=O)Nc4ccccc4F)cc3c2=O)c1 10.9%
CCC1CCCCN1C(=O)Cn1c(=O)n(CCCCCC(=O)NCc2ccccc2Cl)c(=O)c2sccc21 (stereo not drawn) -13.1%
COc1cccc(-c2nnc3sc(CN4CCCCC4)cn23)c1 3.96%
COC(=O)c1ccc(NC(=O)CC2C(=O)N(c3cccc(C)c3)C(=O)N2C2CCCC2)cc1 (stereo not drawn) -24.4%
CC(C)(Oc1ccc(Cl)cc1)C(=O)Nc1nnc2n1CCS2 -58.6%
Cc1cnc2c(c1SCC(=O)NCc1ccccc1Cl)c(=O)n(C)c(=O)n2C -2.5%
COc1cccc(C(=O)Nc2cccc(OCc3cc(=O)n4cccc(C)c4n3)c2)c1 -14.3%
Cc1ccc(NC(=O)CCC(=O)N2CCSc3ccccc32)cc1 -16%
CCCCNC(=O)CC1N=C2c3ccccc3N=C(SCC(=O)NCc3ccccc3Cl)N2C1=O (stereo not drawn) -11.5%
Cc1ccc(C)c(N2CCN(C(=O)c3nn(C)c4c3CS(=O)(=O)c3ccccc3-4)CC2)c1 -1.72%
CCOc1ccc(NC(=O)Cn2cc(C(=O)c3ccccc3)c(=O)c3cc4c(cc32)OCCO4)cc1 30.7%
COC(=O)c1ccc(NC(=O)CC2C(=O)N(c3ccc(C)cc3)C(=O)N2Cc2ccc(OC)cc2)cc1 (stereo not drawn) -14.9%
Clc1ccc(-c2noc(-c3cccnc3N3CCN(c4ccccc4)CC3)n2)cc1 -9.62%
Cc1ccn2c(Nc3ccccc3C)c(-c3cccnc3)nc2c1 -17.3%
Cn1c(=O)c(=O)n(C)c2cc(S(=O)(=O)Nc3ccc(Cl)c(C(F)(F)F)c3)ccc21 -7.28%
Fc1ccc(Nc2c(-c3ccco3)nc3ccccn23)cc1 3.39%
CCN(C(=O)CSc1nc2ccccc2n1CC(=O)N1CCCC(C)C1)c1ccccc1 (stereo not drawn) -6.72%
CCOc1ccc(CCNC(=O)C2CCN(Cc3nc(-c4ccccc4C)oc3C)CC2)cc1OCC 0.494%
O=C(CC(NCc1cccnc1)C(=O)O)Nc1ccc(O)cc1 (stereo not drawn) 18.4%
CNCCC(Oc1ccccc1C)c1ccccc1 (stereo not drawn) -13.2%
Cc1ccc(C2c3[nH]c4ccccc4c3CCN2C(=O)CCc2ccccc2)cc1 (stereo not drawn) -30.3%
CCOc1ccc(CNC(=O)Cc2ccc(NC(=O)N3CCCCc4ccccc43)cc2)cc1OC -20.6%
Cc1ccc(NC(=O)C2CCC(CNS(=O)(=O)c3ccc4c(c3)C(C)(C)C(=O)N4C)CC2)cc1 (stereo not drawn) -6.1%
CC(C)(C)c1ccc(C(=O)N2CCN(Cc3cc(=O)n4nc(-c5ccccc5F)sc4n3)CC2)cc1 -10.9%
Cc1cc(=O)oc2cc(OCC(=O)Nc3c(C(C)C)cccc3C(C)C)ccc12 -1.21%
Clc1ccc(-c2nnn3c2nc(NCc2ccc4c(c2)OCO4)c2ccccc23)cc1 -0.93%
COc1cc(OC)c(NC(=O)Cn2cnc3nc4c(cc3c2=O)CCCC4)cc1Cl -11.8%
CCOc1ccc(C(NC(=O)c2cc(OC)c(OC)c(OC)c2)c2cc(Cl)c3cccnc3c2O)cc1 (stereo not drawn) -16.5%
Cc1ccc2nc(CN3CCN(S(=O)(=O)c4ccccc4)CC3)oc2c1 14.6%
CC(C)Oc1cccc(C(=O)Nc2ccc3oc(-c4ccccc4)nc3c2)c1 -8.6%
Cc1ccc(S(=O)(=O)N(CC(=O)Nc2c(C)cccc2C)c2cccc(Cl)c2)cc1 -25.1%
Cc1nc2nc(C)c(CCC(=O)NCCc3ccccc3)c(C)n2n1 -5.55%
O=C(Cn1cc(S(=O)(=O)Cc2ccccc2Cl)c2ccccc21)Nc1cccc(C(F)(F)F)c1 5.6%
CCc1ccc(NC(=O)CSc2nc3ccccc3c(=O)n2CCC(=O)NC2CCCCC2)cc1 -8.95%
COC(=O)c1cc(C)nc2c1c(=O)nc(SCc1c(C)cc(C)cc1C)n2C1CC1 2.34%
CCC(=O)N1c2ccc(S(=O)(=O)N3CCCCCC3)cc2CC1C (stereo not drawn) 9.62%
CCC(Sc1nc2cc3c(cc2c(=O)n1CCCC(=O)NCc1ccc2c(c1)OCO2)OCO3)C(=O)NCCCOC (stereo not drawn) -17.1%
Cc1nc(N=Nc2ccc(S(=O)(=O)O)cc2S(=O)(=O)O)c(COP(=O)(O)O)c(C=O)c1O 1.25%
Cc1ccc(O)c([C@H](CCN(C(C)C)C(C)C)c2ccccc2)c1 -5.53%
COC(=O)c1cc2oc3ccccc3c2n1CC(=O)Nc1ccc(N(C)C)cc1 2.17%
Cc1ccc(NC(=O)COc2ccc(-c3nn(C)c(=O)c4ccccc34)cc2)c(C)c1 -19.2%
Nc1c(-c2nc(-c3ccccc3Cl)no2)nnn1-c1ccccc1F 11.5%
Cn1cc(S(=O)(=O)N2CCCCC2)cc1C(=O)NCc1ccc(Cl)cc1 2.16%
CCC(=O)Nc1nnc(S(=O)(=O)N2CCCCCC2)s1 3.79%
COc1ccc(NC(=O)C(NS(=O)(=O)c2cccc3nsnc23)c2ccccc2)cc1 (stereo not drawn) -18.6%
CCOc1cc(-c2nnc(SCC(=O)NCCCOC)nc2-c2ccc(OC)c(OCC)c2)ccc1OC -11.5%
CCC(CC)c1nn2cc(-c3ccccc3)nc2s1 9.96%
CCCCSc1nnc2c(n1)OC(c1ccc(C)s1)Nc1ccccc1-2 (stereo not drawn) -23.3%
Cc1ccc(N2CCN(S(=O)(=O)c3cc(Br)cc4c3N(C(=O)C3CC3)CC4)CC2C)cc1 (stereo not drawn) -16.8%
CCCN(C(=O)c1cn(CC(C)C)c(=O)c2cc(OC)c(OC)cc12)c1cccc(C)c1 9.74%
COc1ccc(-c2cn3c(n2)sc2cc(C(=O)N4CCCCC4)ccc23)cc1 31.7%
CCCCC[C@H](CC(=O)NO)C(=O)N[C@H](C(=O)N1CCC[C@H]1CO)C(C)C -2.43%
CCS(=O)(=O)N1CC(=O)N(c2ccc(C)c(C)c2)C(C)(C(=O)NC2CCCCCC2)C1 (stereo not drawn) 4.46%
Cc1cc(S(=O)(=O)Nc2ccc3[nH]c(=O)sc3c2)ccc1F -1.07%
COc1ccc(N2CC(NC(=O)Cc3cccs3)CC2=O)cc1OC (stereo not drawn) -1.95%
COc1ccc(C2CC(=O)Oc3c2c(=O)n(C)c2ccccc32)c(OC)c1OC (stereo not drawn) 3.13%
O=C(COc1ccccc1)Nc1ccc2nc(SCC(=O)N3CCCC3)sc2c1 3.22%
CCOc1ccc(NC(=O)CS(=O)(=O)Cc2nc(-c3ccc(C)cc3)oc2C)cc1 -4.62%
Fc1ccc(N2CCN(c3ncnc4c3nc3n4CCCC3)CC2)cc1 19.8%
